Assay [1] concerns RAW-Dual. Kind of assay: NF-kB SEAP reporter activity, fold change vs agonist alone; higher = enhanced NF-kB activity. The gist of the method:
(§1)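 Supernatant from RAW-Dual macrophages was read after 20 hours for IRF by QuantiLuc luminescence and for NF-κB by QuantiBlue absorbance at 620 nm. The cells (50,000 cells/well in DMEM, 384-well plates, 37 °C, 5% CO2) had received 50 nL of library stock by pin tool and, 1 h later, a PRR agonist. Reporter activity is expressed relative to agonist-alone wells as fold change, and wells were flagged cytotoxic if IncuCyte confluency was under 70% of agonist controls in both mask sets.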

For assay [2], the system named is RAW-Dual. Kind of assay: NF-kB SEAP reporter activity, fold change vs agonist alone; cytotoxicity flag (confluency mask): not cytotoxic; higher = enhanced NF-kB activity. The gist of the method:
as §1

Assay [3] deals with RAW-Dual. The experiment in a line: NF-kB SEAP reporter activity, fold change vs agonist alone; cytotoxicity flag (confluency mask): cytotoxic (confluency <70% of control); higher = enhanced NF-kB activity. The method in brief:
as §1

Setting [4] is: library stock concentration (final ~1000-fold dilution): 10 mM, cytotoxicity flag (confluency mask): not cytotoxic, agonist: Imiquimod (TLR7) […].
[5] abbreviates: library stock concentration (final ~1000-fold dilution): 10 mM, cytotoxicity flag (confluency mask): not cytotoxic, agonist: MPLA (TLR4) […].
The mark [6] stands for this setting: agonist: ODN 1826 (TLR9) 0.5 ug/mL.
Where [7] appears, read: agonist: Pam2CSK4 (TLR2/6) 0.1 ug/mL.
Where [8] appears, read: agonist: Pam3CSK4 (TLR2/1) 0.1 ug/mL.
Setting [9] is: library stock concentration (final ~1000-fold dilution): 10 mM water, cytotoxicity flag (confluency mask): not cytotoxic, agonist: Imiquimod (TLR7) […].
Where [10] appears, read: library stock concentration (final ~1000-fold dilution): 10 mM water, cytotoxicity flag (confluency mask): not cytotoxic, agonist: MPLA (TLR4) […].

The full ranking holds about 2,900 compounds; the median of “NF-kB SEAP reporter activity, fold change vs agonist alone” is about 0.99, and the highest 2% start at about 2.6. The list shows a part of the results.

In the case of `O.c1cnc2c(c1)ccc1cccnc12`, the “NF-kB SEAP reporter activity” value amounted to 2.78 with RAW-Dual [1] (setting [4]) and 2.1 in the assay with RAW-Dual [1] (setting [5]).

In the case of `CC1(C)CC[C@]2(C(=O)O)CC[C@]3(C)[C@H](C(=O)C=C4[C@@]5(C)C=C(C#N)C(=O)C(C)(C)[C@@H]5CC[C@]43C)[C@@H]2C1`, the figures for the “NF-kB SEAP reporter activity” value in the assay on RAW-Dual [1] (setting [4]) and with RAW-Dual [1] (setting [5]) were 1.62 and 2.03, respectively.

With `CC1(C)CC[C@]2(C(=O)O)CC[C@]3(C)[C@H](C(=O)C=C4[C@@]5(C)C=C(C#N)C(=O)C(C)(C)[C@@H]5CC[C@]43C)[C@@H]2C1` (library stock concentration (final ~1000-fold dilution): 10 mM), the “NF-kB SEAP reporter activity” value stood at 0.307 with RAW-Dual [2] (agonist: LPS (TLR4) 0.1 ug/mL), 1.54 in the assay with RAW-Dual [2] (setting [6]), 0.0752 in the assay with RAW-Dual [2] (setting [7]) and 0.183 in the assay with RAW-Dual [2] (setting [8]).

Take `Cl.Cl.OCCOCCN1CCN(C(c2ccccc2)c2ccc(Cl)cc2)CC1` (stereo unspecified): the figures for the “NF-kB SEAP reporter activity” value in the assay on RAW-Dual [1] (setting [4]) and in the assay with RAW-Dual [1] (setting [5]) were 1.4 and 0.983, respectively.

Take `Cl.Cl.OCCOCCN1CCN(C(c2ccccc2)c2ccc(Cl)cc2)CC1` (stereo unspecified) (library stock concentration (final ~1000-fold dilution): 10 mM): the “NF-kB SEAP reporter activity” value in the assay with RAW-Dual [2] (agonist: LPS (TLR4) 0.1 ug/mL) came out at 1.34; with RAW-Dual [2] (setting [6]), 0.686; in the assay with RAW-Dual [2] (setting [7]), 1.08; in the assay with RAW-Dual [2] (setting [8]) it was 1.03.

With `O=C(O)C1(C(=O)O)CCC1.[NH2-].[NH2-].[Pt+2]` (library stock concentration (final ~1000-fold dilution): 10 mM water), the “NF-kB SEAP reporter activity” value is 0.95 in the assay on RAW-Dual [2] (agonist: LPS (TLR4) 0.1 ug/mL), 1.01 with RAW-Dual [2] (setting [6]), 1.12 in the assay on RAW-Dual [2] (setting [7]) and 1.01 in the assay with RAW-Dual [2] (setting [8]).

`O=C(O)C1(C(=O)O)CCC1.[NH2-].[NH2-].[Pt+2]`: the “NF-kB SEAP reporter activity” value stood at 0.955 in the assay with RAW-Dual [1] (setting [9]) and 1.01 with RAW-Dual [1] (setting [10]).

For `O=C1CCC(N2Cc3c(OCc4ccc(CN5CCOCC5)cc4)cccc3C2=O)C(=O)N1` (stereo unspecified) (library stock concentration (final ~1000-fold dilution): 10 mM), the “NF-kB SEAP reporter activity” value stood at 1 with RAW-Dual [2] (agonist: LPS (TLR4) 0.1 ug/mL), 0.76 in the assay with RAW-Dual [2] (setting [6]), 1.1 with RAW-Dual [2] (setting [7]) and 1.13 in the assay with RAW-Dual [2] (setting [8]).

As for `O=C1CCC(N2Cc3c(OCc4ccc(CN5CCOCC5)cc4)cccc3C2=O)C(=O)N1` (stereo unspecified), the results for the “NF-kB SEAP reporter activity” value in the assay on RAW-Dual [1] (setting [4]) and with RAW-Dual [1] (setting [5]) were 0.608 and 0.916, respectively.

As for `CCOC(=O)CC(=O)O`, the “NF-kB SEAP reporter activity” value in the assay with RAW-Dual [1] (setting [9]) was determined as 0.955; in the assay with RAW-Dual [1] (setting [10]) it was 1.

Regarding `CCOC(=O)CC(=O)O` (library stock concentration (final ~1000-fold dilution): 10 mM water), the “NF-kB SEAP reporter activity” value in the assay with RAW-Dual [2] (agonist: LPS (TLR4) 0.1 ug/mL) was 1.31; with RAW-Dual [2] (setting [6]), 1.09; with RAW-Dual [2] (setting [7]), 1.18; with RAW-Dual [2] (setting [8]) it was 1.03.

Take `C=C1C(=O)OC2C1CCC(C)=CCCC1(C)OC21` (stereo unspecified): the “NF-kB SEAP reporter activity” value in the assay on RAW-Dual [1] (library stock concentration (final ~1000-fold dilution): 1 mM, cytotoxicity flag (confluency mask): not cytotoxic, agonist: Imiquimod (TLR7) […]) was 0.92; in the assay on RAW-Dual [1] (library stock concentration (final ~1000-fold dilution): 1 mM, cytotoxicity flag (confluency mask): not cytotoxic, agonist: MPLA (TLR4) […]) it was 0.844.

`C=C1C(=O)OC2C1CCC(C)=CCCC1(C)OC21` (stereo unspecified) (library stock concentration (final ~1000-fold dilution): 1 mM): the “NF-kB SEAP reporter activity” value in the assay with RAW-Dual [2] (agonist: LPS (TLR4) 0.1 ug/mL) was found to be 0.783; in the assay with RAW-Dual [2] (setting [6]), 0.723; with RAW-Dual [2] (setting [7]), 0.814; in the assay on RAW-Dual [2] (setting [8]), 0.641.

Turning to `O=c1c(O)c(-c2ccc(O)c(O)c2)oc2cc(O)cc(O)c12`, the “NF-kB SEAP reporter activity” value in the assay with RAW-Dual [1] (setting [4]) is 1.15; with RAW-Dual [1] (setting [5]), 1.03.

Take `O=c1c(O)c(-c2ccc(O)c(O)c2)oc2cc(O)cc(O)c12` (library stock concentration (final ~1000-fold dilution): 10 mM): the “NF-kB SEAP reporter activity” value in the assay with RAW-Dual [2] (agonist: LPS (TLR4) 0.1 ug/mL) came out at 1.01; in the assay on RAW-Dual [2] (setting [6]), 0.678; in the assay with RAW-Dual [2] (setting [7]) it was 0.586; in the assay on RAW-Dual [2] (setting [8]) it was 0.902.

Take `O=C(Nc1ccc([N+](=O)[O-])cc1O)Nc1ccccc1Br` (library stock concentration (final ~1000-fold dilution): 10 mM): the “NF-kB SEAP reporter activity” value in the assay on RAW-Dual [3] (agonist: LPS (TLR4) 0.1 ug/mL) came to 2.98; with RAW-Dual [3] (setting [6]), 2.14; with RAW-Dual [3] (setting [7]) it was 0.989; in the assay with RAW-Dual [3] (setting [8]), 1.7.

As to `O=C(Nc1ccc([N+](=O)[O-])cc1O)Nc1ccccc1Br`, the “NF-kB SEAP reporter activity” value amounted to 1.47 in the assay on RAW-Dual [1] (library stock concentration (final ~1000-fold dilution): 10 mM, cytotoxicity flag (confluency mask): cytotoxic (confluency <70% of control), agonist: Imiquimod (TLR7) […]) and 1.48 in the assay with RAW-Dual [1] (library stock concentration (final ~1000-fold dilution): 10 mM, cytotoxicity flag (confluency mask): cytotoxic (confluency <70% of control), agonist: MPLA (TLR4) […]).

As for `O=C(c1cncc(Br)c1)N1CCC(N2CCCC2)CC1`, the “NF-kB SEAP reporter activity” value with RAW-Dual [1] (setting [4]) came out at 0.961; with RAW-Dual [1] (setting [5]), 1.04.

As for `O=C(c1cncc(Br)c1)N1CCC(N2CCCC2)CC1` (library stock concentration (final ~1000-fold dilution): 10 mM), the “NF-kB SEAP reporter activity” value in the assay with RAW-Dual [2] (agonist: LPS (TLR4) 0.1 ug/mL) stood at 1.52; in the assay on RAW-Dual [2] (setting [6]), 0.963; in the assay on RAW-Dual [2] (setting [7]), 0.983; in the assay with RAW-Dual [2] (setting [8]), 1.02.

The record behind these values is the supplement of paper PMC10037445.
